# Measured values from article PMC6212790.
# Some of the results follow. At the low end of the ranking the order means little.
# Biological target: T1, GST-Rok-C97-191 (UniProt O34857)
# T1 sequence: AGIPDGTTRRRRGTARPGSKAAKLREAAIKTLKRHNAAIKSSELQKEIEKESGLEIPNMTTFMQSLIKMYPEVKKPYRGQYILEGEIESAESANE
# Assay: protein binding microarray;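 also: rank score from −0.5 (least bound) to 0.5 (best bound)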
# Conditions: Rok is a gene silencer of Bacillus subtilis; high values mean tight binding; most listed sequences are background and not binding sites; double strand, one strand shown
row,Sequence,binding signal
1,TAGGGAGA,-0.316 E-score
2,AGTTAATC,0.0838 E-score
3,CACATGGC,0.0688 E-score
4,ATTGGAGC,-0.0295 E-score
5,ATGACATC,-0.0261 E-score
6,CTAGTTGC,0.23 E-score
7,CCGTACCC,0.0185 E-score
8,AAGACTGG,-0.0489 E-score
9,CTCACTTC,-0.103 E-score
10,TAGTCTCA,-0.188 E-score
11,AATGTCCG,-0.0567 E-score
12,ACCTTCGC,-0.0326 E-score
13,TTGACCAA,0.0145 E-score
14,ACTAATTC,0.373 E-score
15,AATGTCCT,-0.133 E-score
16,TCTTTGAA,0.0288 E-score
17,GGTTGATA,0.112 E-score
18,AGCAACTA,0.244 E-score
19,ACATAGCT,0.133 E-score
20,AAATACAA,0.265 E-score
21,GGCCTCCC,-0.404 E-score
22,ACGCTCAG,-0.0936 E-score
23,CACCTTAC,0.091 E-score
24,CTGACTAA,-0.0227 E-score
25,TAACCATA,0.161 E-score

row,Sequence,binding signal
1,CACGGTGG,-0.112 E-score
2,GTCGCCTA,-0.125 E-score
3,AAAGACGT,-0.206 E-score
4,AATATTTA,0.311 E-score
5,AATGAAGC,-0.0713 E-score
6,GAGGTTGC,-0.00436 E-score
7,CATCACTC,0.017 E-score
8,TACGAAGA,0.233 E-score
9,CAAGTCCC,-0.198 E-score
10,AAATTCTA,0.379 E-score
11,CGTATGGC,-0.112 E-score
12,AGAAAGAC,-0.0251 E-score
13,CTCCGTGC,-0.185 E-score
14,CAAGGGCG,-0.259 E-score
15,CCTCGCCG,-0.309 E-score
16,ATCGTGTG,0.00119 E-score
17,AAGTCTTG,-0.152 E-score
18,AAGATAGA,0.193 E-score
19,AGCATCCC,-0.0271 E-score
20,AGATGAAT,0.179 E-score
21,CGTCACAA,0.00773 E-score
22,CCTTTACC,-0.154 E-score
23,CGTCTCAA,-0.147 E-score
24,CGCGCTCC,-0.152 E-score
25,TCGTCAAA,-0.177 E-score

row,Sequence,binding signal
1,AGTCATAC,0.0487 E-score
2,AGGTTTAA,-0.0984 E-score
3,GAACGGTA,0.25 E-score
4,GAACCCAA,-0.0111 E-score
5,CCATTCCG,-0.00607 E-score
6,AACGAAAT,0.151 E-score
7,GGTAGAGA,0.173 E-score
8,GAAGATAA,0.224 E-score
9,GCAGGAGA,-0.1 E-score
10,CTGCAGCA,0.0837 E-score
11,AACTACAG,0.327 E-score
12,GACCGACA,0.045 E-score
13,AATCCTTC,0.0128 E-score
14,ATAATAGG,0.204 E-score
15,ATCTATGA,0.21 E-score
16,GCTCCCCA,-0.358 E-score
17,ATGCAAAA,0.0921 E-score
18,CACTAATA,0.33 E-score
19,GCTTTCTA,0.319 E-score
20,AAACGCAG,-0.202 E-score
21,GTCACTAA,-0.0156 E-score
22,AAAGATGC,-0.164 E-score
23,ACGCGGCC,-0.303 E-score
24,AAGGCTAT,-0.189 E-score
25,AAGATTAT,0.193 E-score

row,Sequence,binding signal
1,CGATTTCC,-0.0329 E-score
2,CTAAAGCA,0.0775 E-score
3,AGCATGGC,-0.257 E-score
4,ACCTGCGT,-0.201 E-score
5,TAACAGTA,0.342 E-score
6,CAGCGTCA,-0.136 E-score
7,ATCCTGAC,-0.111 E-score
8,GGGATCAA,0.087 E-score
9,CCCCCAGC,-0.235 E-score
10,CACGCCGA,-0.114 E-score
11,TAAGGAGA,-0.0645 E-score
12,TAGGAGCA,-0.0514 E-score
13,ACGTCCGA,-0.0789 E-score
14,TACTCCTA,0.2 E-score
15,ATGTAGCA,0.249 E-score
16,CGCAACCG,0.0123 E-score
17,AAACCGGC,0.00711 E-score
18,CTACGTAC,0.179 E-score
19,AAGGGAAC,-0.0526 E-score
20,GGTTTTAC,0.0171 E-score
21,AAACGTGC,-0.0643 E-score
22,AGCCCCAC,-0.285 E-score
23,AACGAATC,0.0675 E-score
24,GGTCCTAA,-0.141 E-score
25,AAGCCTCG,-0.157 E-score

row,Sequence,binding signal
1,AAAGGCGA,-0.163 E-score
2,CCTGCCCG,-0.291 E-score
3,ATCGAAAG,-0.0779 E-score
4,ATTCAGTC,0.00215 E-score
5,GACAAGCC,-0.303 E-score
6,GTGGGACA,-0.0102 E-score
7,AGTTGCTC,-0.0215 E-score
8,AGTTCCGC,0.016 E-score
9,GACTGGTA,0.0942 E-score
10,ACCCAATA,0.126 E-score
11,GAGTCCGC,-0.156 E-score
12,CCGAAGCG,-0.137 E-score
13,ATGACAAG,0.0967 E-score
14,AACTGCGC,-0.0988 E-score
15,TAAATATA,0.378 E-score
16,CGCTCACA,-0.108 E-score
17,AATCAACC,-0.0341 E-score
18,AAATCCCT,-0.144 E-score
19,AAGAAACA,0.209 E-score
20,TTCGGCAA,0.0828 E-score
21,GGAAAGCC,-0.359 E-score
22,CGTGGGAA,-0.123 E-score
23,GACTTGGA,0.0497 E-score
24,GACCTGCC,-0.252 E-score
25,AGAAACTA,0.377 E-score

row,Sequence,binding signal
1,ATTACTCA,0.159 E-score
2,TGAAGGAA,-0.162 E-score
3,ACACCGAC,-0.15 E-score
4,CGCGGATA,0.0026 E-score
5,GCAGGTGA,-0.204 E-score
6,GTAAATTA,0.378 E-score
7,CTTATCTC,0.0402 E-score
8,AATTGCTC,0.117 E-score
9,GACAGATC,-0.173 E-score
10,CTTGATCA,-0.0378 E-score
11,GAGGCGGA,-0.213 E-score
12,TCCCAAAA,-0.229 E-score
13,ATCCAGAC,-0.0379 E-score
14,ATATGATA,0.226 E-score
15,GTACAAGA,0.115 E-score
16,ACACTAGC,-0.055 E-score
17,GGGGAAGA,-0.299 E-score
18,CGTCTGGC,-0.0441 E-score
19,CTCGCCTC,-0.271 E-score
20,AGCAAGAA,0.138 E-score
21,ATATGAAA,0.137 E-score
22,AGCGCTCC,-0.204 E-score
23,TGGGGGAA,-0.219 E-score
24,AGGGTTAA,0.157 E-score
25,CCGCAGTA,0.0802 E-score

row,Sequence,binding signal
1,TCAAAGGA,-0.112 E-score
2,ACCCGTCG,-0.0666 E-score
3,ACAGATCA,-0.0524 E-score
4,ACGACATC,0.0706 E-score
5,AGTCTTTC,-0.0129 E-score
6,ACATCGGT,-0.00865 E-score
7,CAGGGCTC,-0.321 E-score
8,GGGGCGTA,-0.32 E-score
9,GGCGGATA,-0.0808 E-score
10,GTAGGCGA,-0.0223 E-score
11,CCACTGCC,-0.228 E-score
12,TAGCTTGA,0.171 E-score
13,CCGAATGA,0.1 E-score
14,ACTCATTG,0.0742 E-score
15,CGGGTGTA,-0.0869 E-score
16,AACTCAGA,0.111 E-score
17,CGGAACAC,-0.166 E-score
18,AACCGACT,-0.0777 E-score
19,GGTGAGTA,0.216 E-score
20,GCTCATGA,-0.0999 E-score
21,GATTTCAC,-0.175 E-score
22,AACAACGC,0.154 E-score
23,GACAGTCA,-0.111 E-score
24,CGCTGGAG,-0.0371 E-score
25,CCGTTTAG,-0.187 E-score

row,Sequence,binding signal
1,AAAAACTC,0.113 E-score
2,ATGGTGTA,0.152 E-score
3,CACGCTAC,0.218 E-score
4,CCCCGAAA,-0.205 E-score
5,GAAGCGCA,0.0214 E-score
6,AGCGAAGA,0.00338 E-score
7,ACAGATAC,0.252 E-score
8,ATTATGCC,0.103 E-score
9,GCTGCCCC,-0.239 E-score
10,ATGACACA,-0.028 E-score
11,GCGGTTGA,-0.0628 E-score
12,ATGAGGCC,-0.0546 E-score
13,CGTTAACC,-0.00653 E-score
14,GCAACCGA,-0.104 E-score
15,GCGAAATA,0.176 E-score
16,CTAATTAG,0.362 E-score
17,ACACATCC,-0.172 E-score
18,CTAAGGCA,-0.0227 E-score
19,GCTGTGGA,-0.17 E-score
20,CAAGTTCA,0.034 E-score
21,TCCCGTCA,-0.215 E-score
22,CGTTGGGA,-0.225 E-score
23,CATTCTCC,-0.0543 E-score
24,AAGAGCCA,-0.103 E-score
25,CGGCCGCC,-0.431 E-score

row,Sequence,binding signal
1,CGAACACC,-0.163 E-score
2,ATTCCATG,0.0866 E-score
3,ACGCCAGG,-0.0577 E-score
4,CATGTGAG,-0.181 E-score
5,AGATCGCG,0.0472 E-score
6,ATTTAGAC,0.0917 E-score
7,TCTCCCCA,-0.181 E-score
8,GAGGCACA,0.00837 E-score
9,ACGGTCAG,-0.0264 E-score
10,GCGCTGTA,0.0592 E-score
11,GTTTTTCA,-0.192 E-score
12,GAAGCGCC,-0.235 E-score
13,AAAGTTCT,0.145 E-score
14,GGTAGCGA,0.0646 E-score
15,ATTTTAGA,0.0762 E-score
16,GTTTCAGA,0.126 E-score
17,ACGATGTG,-0.0382 E-score
18,CATTGGCC,-0.226 E-score
19,CGGTAAAC,0.0274 E-score
